US10947289B2, “Glyco-modified atrial natriuretic peptide” (priority 2013, dated 2021)
At least one peptide structure holds a part that was inferred or is arguable (an end, a ring closure or a residue). At least one structure is not confirmed: it was looked up by name or label, or the drawing left a doubt.

Tests used:
[1] = system: cGMP concentration in plasma; assay: cGMP concentration in plasma of rats after intravenous injection (Test Example 3); type: in vivo; conditions: rat, 100 nmol/kg i.v.; for All values integrated AUC 0-240 / All values integrated AUC 60-240 / Pre-value and higher values integrated AUC 60-240: plasma cGMP; for All values integrated AUC 0-240: 0 to 240 minutes; for All values integrated AUC 0-240 / All values integrated AUC 60-240: Pre-value as baseline, points under baseline negative; for All values integrated AUC 60-240 / Pre-value and higher values integrated AUC 60-240: 60 to 240 minutes; for Pre-value and higher values integrated AUC 60-240: only points above baseline
Method: The duration time (the effect of persistently elevating cGMP in blood and the time for which a test substance was detectable in blood) of each modified peptide prepared in Example 2 in the blood of rats was examined by the following method:
Before the administration and 15, 30, 60, 90, 120, 180, and 240 minutes after the administration, blood was sampled (200 μL/sampling) over time from the jugular vein. The blood samples were immediately left on ice.
The collected blood samples were centrifuged at 5000 rpm at 4° C. for 5 minutes by use of a centrifuge (Sigma 4K15, rotor: Nr12130-H). The separated plasma samples were divided into two types (samples for PK measurement and for cGMP measurement) and stored at −80° C. until measurement.
The cGMP concentration in plasma was measured using Amersham cGMP Enzyme Immunoassay Biotrak™ (EIA) System (dual range) according to the protocol attached thereto.

[2] = molecular target: T1, human GC-A (Homo sapiens, UniProt P16066); assay: cGMP elevating activity in CHO/human GC-A cells (Test Example 1); type: cell-based; conditions: for Emax: maximum T/C in range 0.01-100 nM, solvent only = 0, 1 nM ANP = 1
T1 construct: expressed in transfected cells; host or cells: CHO cells
T1 sequence (P16066 33-1061): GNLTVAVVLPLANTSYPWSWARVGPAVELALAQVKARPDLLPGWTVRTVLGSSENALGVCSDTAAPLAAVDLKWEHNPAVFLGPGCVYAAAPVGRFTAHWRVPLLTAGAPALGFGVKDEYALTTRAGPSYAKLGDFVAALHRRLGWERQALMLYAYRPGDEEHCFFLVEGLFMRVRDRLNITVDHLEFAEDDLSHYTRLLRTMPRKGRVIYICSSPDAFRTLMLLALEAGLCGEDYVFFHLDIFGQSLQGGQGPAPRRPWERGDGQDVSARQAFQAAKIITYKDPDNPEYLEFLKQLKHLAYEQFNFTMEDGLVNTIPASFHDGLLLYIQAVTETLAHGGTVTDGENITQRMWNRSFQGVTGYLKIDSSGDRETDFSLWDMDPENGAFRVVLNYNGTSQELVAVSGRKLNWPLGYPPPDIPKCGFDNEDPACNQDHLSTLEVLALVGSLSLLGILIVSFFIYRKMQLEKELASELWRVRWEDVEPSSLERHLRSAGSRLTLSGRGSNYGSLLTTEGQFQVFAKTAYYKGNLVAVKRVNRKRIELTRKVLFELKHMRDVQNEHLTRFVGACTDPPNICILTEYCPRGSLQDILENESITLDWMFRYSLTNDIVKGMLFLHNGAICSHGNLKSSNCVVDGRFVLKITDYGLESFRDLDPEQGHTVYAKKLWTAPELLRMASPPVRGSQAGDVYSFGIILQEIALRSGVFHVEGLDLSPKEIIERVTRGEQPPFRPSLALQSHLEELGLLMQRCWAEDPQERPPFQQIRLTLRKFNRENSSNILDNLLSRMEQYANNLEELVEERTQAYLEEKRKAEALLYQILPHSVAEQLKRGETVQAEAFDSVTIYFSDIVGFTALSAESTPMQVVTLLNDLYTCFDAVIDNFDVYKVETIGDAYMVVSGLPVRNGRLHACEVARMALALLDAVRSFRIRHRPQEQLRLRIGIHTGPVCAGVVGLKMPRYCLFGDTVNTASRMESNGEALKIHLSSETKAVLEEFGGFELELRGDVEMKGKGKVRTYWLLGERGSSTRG
Method: The cGMP elevating activity of each modified peptide prepared in Example 2 was measured by the following method:
CHO/human GC-A cells, which are CHO cells constitutively expressing human GC-A, were suspended at 2×10^5 cells/ml in α-MEM, 10% FBS, and 1% penicillin-streptomycin, inoculated at 20 μl/well (4×10^3 cells/well) onto a 384-well plate (Corning, 3826), and cultured overnight in a CO2 incubator. On the next day, the medium was removed from this plate, and then, 1.6 mM IBMX/KRB buffer was added thereto at 10 μl/well. The mixture was stirred on a plate shaker and then incubated at room temperature for 10 minutes. […] The mixture was stirred on a plate shaker and then incubated for 15 minutes in a CO2 incubator. Thereafter, a lysis buffer (50 mM phosphate buffer, pH 7.0, and 1% Triton X-100) was added thereto at 5 μl/well. The cells were lysed by stirring for 10 minutes on a plate shaker. Subsequently, the cGMP levels in the cell lysates were measured by use of a cGMP kit (manufactured by Cisbio Bioassays). Specifically, to a 384-well plate (Greiner, 784076), 5 μl/well of a diluent attached to the kit, 5 μl/well of the cell lysate, 5 μl/well of cGMP-d2, and 5 μl/well of anti cGMP-Cryptate were added. The mixture was stirred on a plate shaker and then incubated overnight at 4° C. in the dark, followed by the measurement of homogeneous time-resolved fluorescence using RubyStar (manufactured by BMG LABTECH JAPAN Ltd.). The activity value (T/C) of the test substance at each concentration was calculated when the activity value of a well supplemented with only a solvent was defined as 0 and the activity value of a well supplemented with 1 nM ANP was defined as 1.

Row | SMILES | All values integrated AUC 0-240 [1] | All values integrated AUC 60-240 [1] | Pre-value and higher values integrated AUC 60-240 [1] | Time after administration at which plasma cGMP maintained a value higher than before administration [1] | Emax [2] | EC50 ([2]; CHO/human GC-A cells, concentration at T/C=0.5, 15 minutes incubation)
1 | CC[C@H](C)[C@@H]1NC(=O)[C@H](CCCNC(=N)N)NC(=O)[C@H](CC(=O)O)NC(=O)[C@H](CCSC)NC(=O)[C@H](CCCNC(=N)N)NC(=O)CNC(=O)CNC(=O)[C@H](Cc2ccccc2)NC(=O)[C@@H](NC(=O)[C@H](CO)NC(=O)[C@H](CO)NC(=O)[C@H](CCCNC(=N)N)NC(=O)[C@H](CCCNC(=N)N)NC(=O)[C@H](CC(C)C)NC(=O)[C@H](CO)NC(=O)CO[C@@H]2O[C@H](CO)[C@@H](O[C@@H]3O[C@H](CO)[C@@H](O[C@@H]4O[C@H](CO[C@H]5O[C@H](CO)[C@@H](O)[C@H](O)[C@@H]5O[C@@H]5O[C@H](CO)[C@@H](O[C@@H]6O[C@H](CO[C@]7(C(=O)O)C[C@H](O)[C@@H](NC(C)=O)[C@H]([C@H](O)[C@H](O)CO)O7)[C@H](O)[C@H](O)[C@H]6O)[C@H](O)[C@H]5NC(C)=O)[C@@H](O)[C@H](O[C@H]5O[C@H](CO)[C@@H](O)[C@H](O)[C@@H]5O[C@@H]5O[C@H](CO)[C@@H](O[C@@H]6O[C@H](CO[C@]7(C(=O)O)C[C@H](O)[C@@H](NC(C)=O)[C@H]([C@H](O)[C@H](O)CO)O7)[C@H](O)[C@H](O)[C@H]6O)[C@H](O)[C@H]5NC(C)=O)[C@@H]4O)[C@H](O)[C@H]3NC(C)=O)[C@H](O)[C@H]2NC(C)=O)CSSC[C@@H](C(=O)N[C@@H](CC(N)=O)C(=O)N[C@@H](CO)C(=O)N[C@@H](Cc2ccccc2)C(=O)N[C@@H](CCCNC(=N)N)C(=O)N[C@@H](Cc2ccc(O)cc2)C(=O)O)NC(=O)CNC(=O)[C@H](CC(C)C)NC(=O)CNC(=O)[C@H](CO)NC(=O)[C@H](CCC(N)=O)NC(=O)[C@H](C)NC(=O)CNC1=O [Compound 2-1, SG-hANP(1-28)] | 488.98 (pmol/ml)*h | 188.59 (pmol/ml)*h | 191.43 (pmol/ml)*h | 180 min | 1.02 | –
2 | CC[C@H](C)[C@@H]1NC(=O)[C@H](CCCNC(=N)N)NC(=O)[C@H](CC(=O)O)NC(=O)[C@H](CCSC)NC(=O)[C@H](CCCNC(=N)N)NC(=O)CNC(=O)CNC(=O)[C@H](Cc2ccccc2)NC(=O)[C@@H](NC(=O)[C@H](CO)NC(=O)[C@H](CO)NC(=O)[C@H](CCCNC(=N)N)NC(=O)[C@H](CCCNC(=N)N)NC(=O)[C@H](CC(C)C)NC(=O)[C@H](CO)NC(=O)[C@@H](N)CC(=O)N[C@@H]2O[C@H](CO)[C@@H](O[C@@H]3O[C@H](CO)[C@@H](O[C@@H]4O[C@H](CO[C@H]5O[C@H](CO)[C@@H](O)[C@H](O)[C@@H]5O[C@@H]5O[C@H](CO)[C@@H](O[C@@H]6O[C@H](CO[C@]7(C(=O)O)C[C@H](O)[C@@H](NC(C)=O)[C@H]([C@H](O)[C@H](O)CO)O7)[C@H](O)[C@H](O)[C@H]6O)[C@H](O)[C@H]5NC(C)=O)[C@@H](O)[C@H](O[C@H]5O[C@H](CO)[C@@H](O)[C@H](O)[C@@H]5O[C@@H]5O[C@H](CO)[C@@H](O[C@@H]6O[C@H](CO[C@]7(C(=O)O)C[C@H](O)[C@@H](NC(C)=O)[C@H]([C@H](O)[C@H](O)CO)O7)[C@H](O)[C@H](O)[C@H]6O)[C@H](O)[C@H]5NC(C)=O)[C@@H]4O)[C@H](O)[C@H]3NC(C)=O)[C@H](O)[C@H]2NC(C)=O)CSSC[C@@H](C(=O)N[C@@H](CC(N)=O)C(=O)N[C@@H](CO)C(=O)N[C@@H](Cc2ccccc2)C(=O)N[C@@H](CCCNC(=N)N)C(=O)N[C@@H](Cc2ccc(O)cc2)C(=O)O)NC(=O)CNC(=O)[C@H](CC(C)C)NC(=O)CNC(=O)[C@H](CO)NC(=O)[C@H](CCC(N)=O)NC(=O)[C@H](C)NC(=O)CNC1=O [Compound 2-3, (SG-)Asn-hANP(1-28)] | 340.97 (pmol/ml)*h | 116.61 (pmol/ml)*h | 136.00 (pmol/ml)*h | – | 1.02 | –
3 | CC[C@H](C)[C@@H]1NC(=O)[C@H](CCCNC(=N)N)NC(=O)[C@H](CC(=O)O)NC(=O)[C@H](CCSC)NC(=O)[C@H](CCCNC(=N)N)NC(=O)CNC(=O)CNC(=O)[C@H](Cc2ccccc2)NC(=O)[C@@H](NC(=O)[C@H](CO)NC(=O)[C@H](CO)NC(=O)[C@H](CCCNC(=N)N)NC(=O)[C@H](CCCNC(=N)N)NC(=O)[C@H](CC(C)C)NC(=O)[C@H](CO)NC(=O)CNC(=O)CNC(=O)CNC(=O)CNC(=O)CNC(=O)CNC(=O)[C@H](CC(=O)N[C@@H]2O[C@H](CO)[C@@H](O[C@@H]3O[C@H](CO)[C@@H](O[C@@H]4O[C@H](CO[C@H]5O[C@H](CO)[C@@H](O)[C@H](O)[C@@H]5O[C@@H]5O[C@H](CO)[C@@H](O[C@@H]6O[C@H](COC7(C(=O)O)C[C@H](O)[C@@H](NC(C)=O)[C@H]([C@H](O)[C@H](O)CO)O7)[C@H](O)[C@H](O)[C@H]6O)[C@H](O)[C@H]5NC(C)=O)[C@@H](O)[C@H](O[C@H]5O[C@H](CO)[C@@H](O)[C@H](O)[C@@H]5O[C@@H]5O[C@H](CO)[C@@H](O[C@@H]6O[C@H](COC7(C(=O)O)C[C@H](O)[C@@H](NC(C)=O)[C@H]([C@H](O)[C@H](O)CO)O7)[C@H](O)[C@H](O)[C@H]6O)[C@H](O)[C@H]5NC(C)=O)[C@@H]4O)[C@H](O)[C@H]3NC(C)=O)[C@H](O)[C@H]2NC(C)=O)NC(=O)CO[C@@H]2O[C@H](CO)[C@@H](O[C@@H]3O[C@H](CO)[C@@H](O[C@@H]4O[C@H](CO[C@H]5O[C@H](CO)[C@@H](O)[C@H](O)[C@@H]5O[C@@H]5O[C@H](CO)[C@@H](O[C@@H]6O[C@H](COC7(C(=O)O)C[C@H](O)[C@@H](NC(C)=O)[C@H]([C@H](O)[C@H](O)CO)O7)[C@H](O)[C@H](O)[C@H]6O)[C@H](O)[C@H]5NC(C)=O)[C@@H](O)[C@H](O[C@H]5O[C@H](CO)[C@@H](O)[C@H](O)[C@@H]5O[C@@H]5O[C@H](CO)[C@@H](O[C@@H]6O[C@H](COC7(C(=O)O)C[C@H](O)[C@@H](NC(C)=O)[C@H]([C@H](O)[C@H](O)CO)O7)[C@H](O)[C@H](O)[C@H]6O)[C@H](O)[C@H]5NC(C)=O)[C@@H]4O)[C@H](O)[C@H]3NC(C)=O)[C@H](O)[C@H]2NC(C)=O)CSSC[C@@H](C(=O)N[C@@H](CC(N)=O)C(=O)N[C@@H](CO)C(=O)N[C@@H](Cc2ccccc2)C(=O)N[C@@H](CCCNC(=N)N)C(=O)N[C@@H](Cc2ccc(O)cc2)C(=O)O)NC(=O)CNC(=O)[C@H](CC(C)C)NC(=O)CNC(=O)[C@H](CO)NC(=O)[C@H](CCC(N)=O)NC(=O)[C@H](C)NC(=O)CNC1=O (some centres unmarked) [Compound 2-37, SG-(SG-)Asn-Gly6-hANP(1-28)] | – | – | – | – | 1.00 | 0.4 nM
